# According to the supplement of paper PMC3334620:
# Over roughly 33,000 sequences, “E-score (-0.5 to 0.5)” has its median near -0.053; the highest 2% begin near 0.37. The list shows a part of the results.
# Molecular target: Hap1 (UniProt P0CE41)
# Assay: PBM E-score (8-mer binding enrichment) (E-score (-0.5 to 0.5)); higher = stronger / more preferred TF binding; most listed sequences are background and not binding sites
# Conditions: protein concentration: 200 nM; construct: GST-DNA-binding domain
# Procedure, shortened: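 Full-length yeast transcription factors or their DNA-binding domains, GST-tagged and expressed with PURExpress, were applied at about 100-200 nM to universal all-10-mer Agilent arrays. These arrays had been made double-stranded by primer extension on fresh or once-stripped slides. Detection used fluorescent anti-GST, normalisation used masliner, and E-scores for ungapped eight-base words pooled with reverse complements came from the Universal PBM Analysis Suite.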
# Sequence of UniProt P0CE41 (P0CE41 whole entry): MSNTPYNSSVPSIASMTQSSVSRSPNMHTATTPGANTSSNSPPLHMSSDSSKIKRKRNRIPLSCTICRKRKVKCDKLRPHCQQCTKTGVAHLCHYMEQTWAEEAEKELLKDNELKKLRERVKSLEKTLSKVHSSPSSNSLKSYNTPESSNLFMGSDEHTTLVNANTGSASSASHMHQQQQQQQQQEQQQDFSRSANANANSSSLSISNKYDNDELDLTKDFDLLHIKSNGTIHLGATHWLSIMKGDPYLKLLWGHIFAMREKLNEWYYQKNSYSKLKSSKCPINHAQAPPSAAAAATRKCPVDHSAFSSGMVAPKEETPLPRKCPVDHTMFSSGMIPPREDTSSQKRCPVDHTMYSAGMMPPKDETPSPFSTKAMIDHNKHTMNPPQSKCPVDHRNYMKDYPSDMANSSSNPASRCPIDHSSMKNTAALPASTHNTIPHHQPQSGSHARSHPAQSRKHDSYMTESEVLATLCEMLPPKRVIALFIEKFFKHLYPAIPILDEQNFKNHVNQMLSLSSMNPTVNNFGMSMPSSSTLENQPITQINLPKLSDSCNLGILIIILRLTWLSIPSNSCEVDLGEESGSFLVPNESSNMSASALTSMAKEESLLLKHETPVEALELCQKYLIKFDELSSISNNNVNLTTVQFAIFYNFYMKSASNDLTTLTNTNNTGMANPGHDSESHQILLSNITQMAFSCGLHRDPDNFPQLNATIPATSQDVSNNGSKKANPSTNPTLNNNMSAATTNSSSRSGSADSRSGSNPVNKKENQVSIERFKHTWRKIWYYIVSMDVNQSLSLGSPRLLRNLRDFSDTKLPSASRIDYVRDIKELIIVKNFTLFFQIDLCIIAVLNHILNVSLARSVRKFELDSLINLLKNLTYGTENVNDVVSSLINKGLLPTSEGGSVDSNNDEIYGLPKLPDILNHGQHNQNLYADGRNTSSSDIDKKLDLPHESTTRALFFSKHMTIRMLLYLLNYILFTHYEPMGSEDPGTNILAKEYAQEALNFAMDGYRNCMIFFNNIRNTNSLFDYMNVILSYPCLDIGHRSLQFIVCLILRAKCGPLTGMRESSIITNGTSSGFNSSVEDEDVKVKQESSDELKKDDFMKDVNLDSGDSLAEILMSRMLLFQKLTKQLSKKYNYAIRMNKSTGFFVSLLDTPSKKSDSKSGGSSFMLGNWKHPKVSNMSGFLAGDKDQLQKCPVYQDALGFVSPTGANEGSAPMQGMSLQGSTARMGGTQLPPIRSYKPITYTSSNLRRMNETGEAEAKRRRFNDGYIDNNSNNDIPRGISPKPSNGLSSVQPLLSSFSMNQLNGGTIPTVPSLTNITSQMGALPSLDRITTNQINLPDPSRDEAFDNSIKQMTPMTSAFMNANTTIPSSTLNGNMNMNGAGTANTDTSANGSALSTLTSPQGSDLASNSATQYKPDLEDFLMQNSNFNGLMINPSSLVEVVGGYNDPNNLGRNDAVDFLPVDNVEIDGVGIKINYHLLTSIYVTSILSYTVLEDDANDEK
row,Sequence,PBM E-score
1,AGAAATCG,0.0927
2,GACTCATA,-0.107
3,CGGCGCTC,0.23
4,TCGCGTAA,0.178
5,ATAATACG,0.145
6,AACGGAAA,0.385
7,CAGGCCCG,0.125
8,CACTCACG,-0.0945
9,ACATACTG,-0.0905
10,CGGTGCTC,0.161
11,CGCGAAAA,0.247
12,CCTAATCG,0.0853
13,CTTTTGAA,-0.118
14,CTTGGAGA,-0.0528
15,AAGTCTCA,-0.234
16,AAAGATAG,-0.134
17,CTAATGAA,-0.0291
18,AACGCATC,-0.0995
19,AGTTAAGC,0.0922
20,ACTAACAC,-0.057
21,CGGGCAGC,0.266
22,CACCCGCG,0.175

row,Sequence,PBM E-score
1,AGCCGTTA,0.297
2,GCGGGTCA,0.0979
3,CTAGTCAG,-0.4
4,GCCGCGGA,0.329
5,GAGACTAA,0.087
6,CAGAGTCA,-0.168
7,TATTCCCA,0.114
8,AGATGGTC,-0.051
9,CGGATCCG,0.401
10,GGCCCTAA,0.178
11,TATAGGGA,-0.0339
12,CCCCGTTA,0.203
13,AACGCTCT,-0.183
14,AGGAGGTC,-0.153
15,CAGCCCAG,-0.15
16,CGATCTTC,0.162
17,AACTACGG,0.193
18,ACATACCT,-0.197
19,GCGATTCC,0.211
20,GTACTGAC,-0.119
21,CTTACAAG,-0.285
22,AAATTTGA,-0.0325

row,Sequence,PBM E-score
1,ACCGACCC,0.265
2,GAGCCCGA,0.137
3,ACCGCAGT,0.106
4,AAAAGGAC,-0.193
5,AACCACTG,-0.0718
6,AAATGCCG,0.359
7,TCGGAGCA,0.367
8,CCGAACCA,0.268
9,AGCCCGCA,0.1
10,ACCTGAGA,-0.199
11,CCCTCTAC,-0.247
12,AATGATTC,0.00202
13,CAAACGGC,0.0742
14,ATTGAAGG,-0.226
15,CCTGTGAC,-0.277
16,AAGCTGAC,-0.0985
17,CCGGCATC,0.203
18,GAGATTGC,0.0468
19,AGCGTAGC,-0.0143
20,AATAGCGG,0.178
21,GAGTATTA,-0.121
22,CCTTCGTC,-0.164

row,Sequence,PBM E-score
1,CTCCGCCC,0.245
2,GCAGAGTA,-0.163
3,ACTCCCCA,-0.173
4,AGTGTCTA,-0.159
5,CCGCCCCA,0.15
6,CGTAATCA,-0.0549
7,CTTACTCC,0.129
8,ATGGGTAA,0.00081
9,GTGGCAAC,-0.151
10,CTATAGTC,-0.191
11,CAACACCG,0.13
12,ACTTACAA,-0.212
13,AAGAGTAA,-0.136
14,ATTCCTCG,0.131
15,AACCGTAT,-0.114
16,AGGCGACT,-0.0475
17,CCTAAGGA,-0.0581
18,CCCTATGC,-0.164
19,AGAAAGCG,-0.22
20,ACTTCGGA,0.403
